Data: paper PMC7048817, “Structure of the processive human Pol δ holoenzyme” (Nature Communications, 2020)

Biological target: the molecule itself
Test: SEC; HiLoad 16/600 Superdex 200 pg in PCNA storage buffer; 2 mg of each PCNA form in 250 μL, 1 mL/min; markers carbonic anhydrase (27 kDa) and conalbumin (75 kDa); monomers to trimer

B1: LA-PCNA (PCNA L66A, A67E) (natural protein)
chain: not shown
notes: proliferating cell nuclear antigen, human, full length, with L66A and A67E; source: E. coli BL21 (DE3), purified (HisTrap, HiTrap Q, Superdex 200)
stoichiometry N: 3
